Measurements published in the RNAGym collection of RNA variant scans (doi:10.1093/nar/gkz1192).
The source gives no read counts; variants with many changes may rest on few reads.

B1: CPEB3 Ribozyme (parent)
chain: UAACAGGGGGCCACAGCAGAAGCGUUCACGUCGCAGCCCCUGUCAGAUUCUGGUGAAUCUGCGAAUUCUGCUGUAUAUCUC

Variants of: B1
Assay: self-cleavage, relative activity (ratio to wild type); higher = more cleavage; in vitro, sequencing
Method in brief: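 For each CPEB3 ribozyme variant, relative activity is its cleaved/total read fraction divided by the unmutated ribozyme's. Barcoded error-prone PCR libraries were transcribed by T7 RNA polymerase (5 hours, 37°C) and held in DNase I for 15 min before an EDTA stop, with cleavage occurring throughout. Template-switching reverse transcription and Illumina sequencing were used to read the RNAs. A 5-read minimum applied, and results are the mean of three batches.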

Row | Variant | self-cleavage
1 | UAGCAGGGGGCCACAGCAGAGGCGUUCACGUCGCAGCCCCAGUCAGAUUCUGGUGUAUCUGCGAAUUCUGCAGUAUAUCUC | 0.08
2 | UAGCAGGGGGCCACAGCAGAGGCGUUCACGUCGCAGCCCCAGUCAGAUUCUGGUGAGUCCGCGAGUUCUGCUGUAUAUCUC | 0.09
3 | UAGCAGGGGGCCACAGCAGAGGCGUUCACGUCGCAGCCCCAGUCAGAUUCUGGUGAAUCUGCGAAUUCUGCCGUAUAUCUC | 0.13
4 | UAGCAGGGGGCCACAGCAGAGGCGUUCACGUCGCAGCCCCCGUCAGAUUCUGGUGAAUCUGCGGAUUCUGCUGUAUAUCCC | 0.33
5 | UAGCAGGGGGCCACAGCAGAGGCGUUCACGUCGCAGCCCCUGACAGAUUCUGGUGAAUCUGUGAAUUCUGCUGUACAUCUC | 0.13
6 | UAGCAGGGGGCCACAGCAGAGGCGUUCACGUCGCAGCCCCUGGCAGAUUCUGGUGAAUCUGCGAAUUCUGCGGUAUAUCUC | 0.07
7 | UAGCAGGGGGCCACAGCAGAGGCGUUCACGUCGCAGCCCCUGUCAGAUCCCGGCAAAUCUGCGAAUUCUGCUGUAUAUCUC | 0.32
8 | UAGCAGGGGGCCACAGCAGAGGCGUUCACGUCGCAGCCCCUGUCAGAUUCUGGUGAAUCUGCGAAUUCCGCUGUAUAUCUC | 0.15
9 | UAGCAGGGGGCCACAGCAGAGGCGUUCACGUCGCAGCCCCUGUCAGAUUCUGGUGAAUCUGCGAAUUCUGCUGCAUAUCUC | 1.05
10 | UAGCAGGGGGCCACAGCAGAUGCGUUCACGUCGCAGCCCCUGUCAGAUUCUGGCGAAUCUGCGAAUUCUGCCGUAUAUCUC | 0.52
11 | UAGCAGGGGGCCACAGCAGAAGCGUUCCCGUCGCAGCCCCUGUCAGAUUCUGGUGAAUCCGCGAAUUCUGCUGUAUAUCUC | 0.11
12 | UAGCAGGGGGCCACAGCAGAAGCGUUCGCGUCGCAGCCCCUGUCAGAUUCUGGUGAAUCUGCGGAUUCUGCCGUAUAUCUC | 0.28
13 | UAGCAGGGGGCCACAGCAGAAGCGUUCGGGUCGCAGCCCCUGUCAGUUUCUGGUGAAUCUGCGAGUUCUGCCGUAUAUCUC | 0.23
14 | UAGCAGGGGGCCACAGCAGAAGCGUUCGCGUCACAGCCCCUGUCAGAUUCUGGUGAAUCCGCGAAUUCUGCUGUAUAUCUC | 0.36
15 | UAGCAGGGGGCCACAGCAGAAGCGUUCGCGUCGCAGCCCCUGUCAGACUCUGGUGAAUCUGCGAACUCUGCUGUAUAUCUC | 0.28
16 | UAGCAGGGGGCCACAGCAGAAGCGUUCGCGUCGCAGCCCCUGUCAGAUUCUGGUGAAUCUGCGAAUUCUGCUGUAUAUCAC | 1.02
17 | UAGCAGGGGGCCACAGCAGAAGCGUUCUCGUCGCGGCCCCUGUCAGAUUCUGGUGAAUCUGCGAAUUCUGCUGUAUAUCUC | 1.19
18 | UAGCAGGGGGCCACAGCAGAAGCGUUCUCGCCGCGGCCCCUGUCAGAUUCUGGUGAAUCUGUGAAUUCUUCUGUAUAUCUC | 0.13
19 | UAGCAGGGGGCCACAGCAGAAGCGUUCUCGUCGCAGCCCCCGUCAGACUCUGGUGAAUCUGCGAAUUCUGCUGUAUAACAC | 0.28
20 | UAGCAGGGGGCCACAGCAGAAGCGUUCUCGUCGCAGCCCCUGUCAGAACCUGGUGAAUCUGCGAAUUCUGCUGUAUAUCUC | 0.28
21 | UAGCAGGGGGCCACAGCAGAAGCGUUCACGUCGCGGCCCAUGUCAGAUUCUGGUGAAUCUGCGAAUUCUGAUGUAUAUCUC | 0.06
22 | UAGCAGGGGGCCACAGCAGAAGCGUUCACGUCGCGGCCCUUGUCAGAUUCUGGUGAAUCUGCGAGUUCUGCUGUAUAUCUC | 0.79
23 | UAGCAGGGGGCCACAGCAGAAGCGUUCACGUCGCGACCCCUGUCAGAUUCUGGUGAAUCUGCGAAUUCUGCUGUAUAUCUC | 1.06

Row | Variant | self-cleavage
24 | UAGCAGGGGGCCACAGCAGAAGCGUUCACGUCGCGGCCCCUUUCAGAAUCUGGUGAAUCUGCGAAUUCUGCUGUAUAUCUC | 0.49
25 | UAGCAGGGGGCCACAGCAGAAGCGUUCACGUCGCGGCCCCAGUCAGAUACUGGAGAACCUGCGAAUUCUGCUGUAUAUCUC | 0.11
26 | UAGCAGGGGGCCACAGCAGAAGCGUUCACGUCGCGGCCCCAGUCAGAUUCCGGGGAAUCUGCGAAUCCUGCAGUAUAUCUC | 0.09
27 | UAGCAGGGGGCCACAGCAGAAGCGUUCACGUCGCUGCCCCUGUCUGAUUCUGGUGAAACUGCGAAUUCUGCUGUAUAUCUC | 0.25
28 | UAGCAGGGGGCCACAGCAGAAGCGUUCACGUCGCUGCCCCUGUCAGAUUCUGGUGGUUCUGCGAAUUCUGCUGUAUAUCUC | 0.19
29 | UAGCAGGGGGCCACAGCAGAAGCGUUCACGUCGCUGCCCCUGUUAGAUUCUGGUGAAUCUGCGAAUUCUGCUGUAUAUCUC | 0.4
30 | UAGCAGGGGGCCACAGCAGAAGCGUUCACGUCGCUACCCCUGUCAGAUUCUGGCGAUUCUGCGAAUUCUGCUGUAUUUCUC | 0.25
31 | UAGCAGGGGGCCACAGCAGAAGCGUUCACGUCGCUGCCCCUGUCAGAUUCUGGUGAACCUGCGAAUUCUGCUGUAUAUCUC | 0.25
32 | UAGCAGGGGGCCACAGCAGAAGCGUUCACGUCGCUGCCCCUGUCAGAUUCUGGUGAAUCUGCGAAUUCAGCUGUAUAUCUC | 0.34
33 | UAGCAGGGGGCCACAGCAGAAGCGUUCACGUCGCUGCCCCUGUCAGAUUCUGGUGAAUCUGCGAAUUCUGCCGUAUAUCUC | 0.51
34 | UAGCAGGGGGCCACAGCAGAAGCGUUCACGUCGCUGCCCCUGUCAGAUUCUGGUGAAUCUGCGAAUUCUGCUGUAAACCUC | 0.6
35 | UAGCAGGGGGCCACAGCAGAAGCGUUCACGUCGCUGCCCCUGUCAGAUUCUGGUGAAUCUGCGAAUUCUGCUGUACAUCUC | 0.72
36 | UAGCAGGGGGCCACAGCAGAAGCGUUCACGUCGCAGCCCCUGUCCGACUCUGGUGAAUCUGCGAGUUCUGCUGUAUAUUUC | 0
37 | UAGCAGGGGGCCACAGCAGAAGCGUUCACGUCGCAGCCCCUGUCGGAUUCUGGUGAGUCAGCGGACUCUGCUGUAUAUCUC | 0.17
38 | UAGCAGGGGGCCACAGCAGAAGCGUUCACGUCGCAGCCCCUGUCGGAUUCUGGUGAGUCUGCGAAUUCUGCUGUAUACCUC | 0.58
39 | UAGCAGGGGGCCACAGCAGAAGCGUUCACGUCGCAGCCCCUGUCGGAUUCAGGUGAAUCUGCGAAUUCUGCUGUAUCUCUC | 0.67
40 | UAGCAGGGGGCCACAGCAGAAGCGUUCACGUCGCAGCCCCUGUCGGAUUCUGGUGAAUCCGCGAAUUCUGCUGUAUAUCUC | 1.09
41 | UAGCAGGGGGCCACAGCAGAAGCGUUCACGUCGCAGCCCCUGUCGGAUUCUGGUGAAUCUGCGAACUCUGCCGUAUGUCUC | 0.26
42 | UAGCAGGGGGCCACAGCAGAAGCGUUCACGUCGCAGCCCCUGUCGGAUUCUGGUGAAUCUGCGAAUUCUGCUGAAUAUCUC | 1.24
43 | UAGCAGGGGGCCACAGCAGAAGCGUUCACGUCGCAGCCCCUGUCUGACUCUGGUGAAUCUGCGAAUUCUGCUGUAUAUCUC | 0.33
44 | UAGCAGGGGGCCACAGCAGAAGCGUUCACGUCGCAGCCCCUGUCUGAUUCUGGUGAAUCUGCGAAUCCUGCUGUAUAUCUC | 0.28
45 | UAGCAGGGGGCCACAGCAGAAGCGUUCACGUCGCAGCCCCUGUCUGAUUCUGGUGAAUCUGCGAAUUCAGCUGUAUAUCUC | 0.15
46 | UAGCAGGGGGCCACAGCAGAAGCGUUCACGUCGCAGCCCCUGUCUGAUUCUGGUGAAUCUGCGAAUUCUGCUGCAUAUCUC | 0.78

Row | Variant | self-cleavage
47 | UAGCAGGGGGCCACAGCAGAAGCGUUCACGUCGCAGCCCCUGUCAGGUUCUGGUGAAUCCGCGAAUUCUGCUGUAUAUCUC | 0.43
48 | UAGCAGGGGGCCACAGCAGAAGCGUUCACGUCGCAGCCCCUGUCAGUUUCUGGUGAAUCUGCGAAGUCUGCUGUAUAUCUC | 0.27
49 | UAGCAGGGGGCCACAGCAGAAGCGUUCACGUCGCAGCCCCUGUCAGAUUCUGGUGGAUCCGCGAAUUCUGCUGUAUAUCUC | 0.22
50 | UAGCAGGGGGCCACAGCAGAAGCGUUCACGUCGCAGCCCCUGUCAGAUUCUGGUGGAUCUGCGAAUUCCGCUGUAUAUCUC | 0.41
51 | UAGCAGGGGGCCACAGCAGAAGCGUUCACGUCGCAGCCCCUGUCAGAUUCUGGUGGAUCUGCGAAUUCUGCUGCAUAUCUC | 1.15
52 | UAGCAGGGGGCCACAGCAGAAGCGUUCACGUCGCAGCCCCUGUCAGAUUCUGGUGAGUCUGCGAAUACUGCUGUAUAUCUC | 0.49
53 | UAGCAGGGGGCCACAGCAGAAGCGUUCACGUCGCAGCCCCUGUCAGAUUCUGGUGAAUCUGCGGAUUCUGCUGUAUAUCUU | 0.97
54 | UAGCAGGGGGCCACAGCAGAAGCGUUCACGUCGCAGCCCCUGUCAGAUUCUGGUGAAUCUGCGGAUUCCGCUGUAUACCUC | 0.6
55 | UAGCAGGGGGCCACAGCAGAAGCGUUCACGUCGCAGCCCCUGUCAGAUUCUGGUGAAUCUGCGUAUACUGCUGUAUACCUC | 0.42
56 | UAGAGGGGGGCCACAGUAGAUGCGUCCACGUCGCAGCCCCUGUUAGAUUCUGGUGAAUCUGCGAAUUCUGCUGUAUAUCUC | 0.34
57 | UAGGAGGGGGCCACUGCAGAAUCGUCCACGUCGCAGCCCCUGUCAGAUUCUGGCGAAUCCGCGAAUUCUGCUGUAUAUCUC | 0.23
58 | UAGGAGGGGGCCACAGCGGAAGCGUUCACGUCGCAGCCCUUGUCAGAUUCUGGUGAAUCUGCGAAUUCCGCUGUAUAUCUC | 0.77
59 | UAGGAGGGGGCCACAGCAGAAGCGUUCACGUCGCAGCCCCUGUAAGAUUCUGGUGAAUCUGCGAAUUCUGCUGUAUAUCUC | 0.71
60 | UAGUAGGGGGCCACGGCAGAAGCGUACACGUCGCAGCCCCAGUCAGAUUCCGGUGAAUCUGCGAAUUCUGCUGUAUAUCUC | 0.4
61 | UAGUAGGGGGCCACAGCAGAAGCGUUCACGUCGCAGCCCCUGUCAGAUUCUGGUGAAUCUGCGAGUUCCGCUGUAUAUCUC | 0.57
62 | UAGUAGGGGGCCACAGCAGAAGCGUUCACGUUGCAGCCCCUGUCAGAUUCUGGUGAAUUAGCGAAUUCUGCUGUAUAUCUC | 0.07
63 | UAGUAGCGGGCCACAGCAGAAGCGUUCACGUCGCAGCCCCUGUCAGAUUCUGGUGAAUCUGCGAAUUCUGCUGUAUAUCCC | 0.99
64 | UAGCAGGGGGACACAGCAGGAGCGUUCACGUCGCAGCCCCUGUCAGAUUCAGGUGAGUCUGCGAAUUCUGCUGUAUACCUC | 0.03
65 | UAGCAGGGGGACACAGCAGAAGCGUUCACGUCGCAGCCCCUGUCGGAUUCUGGUGAAUCUGCGGAUUCUGCUGUAUAUCUC | 0.13
66 | UAGCAGGGGGGCACAGCGGAAGCGUUCACGUCGCAGCCCCUGUCAGAUUCUGGUGAAUCUGCGAAUCCUGCUGUAUAUCUC | 0.12
67 | UAGCAGGGGGGCACAGCAGAAGCGUUCACGUCGCAGCCCCUGUCAGAUUCUGGUGAAUCUGCGAAUUCUGCUGUAUGUCUC | 0.47
68 | UAGCAGGGGGUCACAGCAGGAGCGUUCACGUCGCAGCCCCUGCCAGAUUCUGGAGAAUCUGCGAAUUCUGCUGUAUAUCUC | 0.09
